Reference: article PMC4336329 (PLoS ONE, 2015)
The campaign covered roughly 310,000 compounds. About 2,200 (0.71%) showed an effect of 50% or more. Effects have a minus sign here. The list shows a part of the results.

Biological target: human ether-à-go-go-related gene (hERG) potassium channel (human, UniProt Q12809)
Experiment: primary screen, population patch clamp on CHO cells stably expressing hERG

Chain of human ether-à-go-go-related gene (hERG) potassium channel (Q12809 whole entry, looked up): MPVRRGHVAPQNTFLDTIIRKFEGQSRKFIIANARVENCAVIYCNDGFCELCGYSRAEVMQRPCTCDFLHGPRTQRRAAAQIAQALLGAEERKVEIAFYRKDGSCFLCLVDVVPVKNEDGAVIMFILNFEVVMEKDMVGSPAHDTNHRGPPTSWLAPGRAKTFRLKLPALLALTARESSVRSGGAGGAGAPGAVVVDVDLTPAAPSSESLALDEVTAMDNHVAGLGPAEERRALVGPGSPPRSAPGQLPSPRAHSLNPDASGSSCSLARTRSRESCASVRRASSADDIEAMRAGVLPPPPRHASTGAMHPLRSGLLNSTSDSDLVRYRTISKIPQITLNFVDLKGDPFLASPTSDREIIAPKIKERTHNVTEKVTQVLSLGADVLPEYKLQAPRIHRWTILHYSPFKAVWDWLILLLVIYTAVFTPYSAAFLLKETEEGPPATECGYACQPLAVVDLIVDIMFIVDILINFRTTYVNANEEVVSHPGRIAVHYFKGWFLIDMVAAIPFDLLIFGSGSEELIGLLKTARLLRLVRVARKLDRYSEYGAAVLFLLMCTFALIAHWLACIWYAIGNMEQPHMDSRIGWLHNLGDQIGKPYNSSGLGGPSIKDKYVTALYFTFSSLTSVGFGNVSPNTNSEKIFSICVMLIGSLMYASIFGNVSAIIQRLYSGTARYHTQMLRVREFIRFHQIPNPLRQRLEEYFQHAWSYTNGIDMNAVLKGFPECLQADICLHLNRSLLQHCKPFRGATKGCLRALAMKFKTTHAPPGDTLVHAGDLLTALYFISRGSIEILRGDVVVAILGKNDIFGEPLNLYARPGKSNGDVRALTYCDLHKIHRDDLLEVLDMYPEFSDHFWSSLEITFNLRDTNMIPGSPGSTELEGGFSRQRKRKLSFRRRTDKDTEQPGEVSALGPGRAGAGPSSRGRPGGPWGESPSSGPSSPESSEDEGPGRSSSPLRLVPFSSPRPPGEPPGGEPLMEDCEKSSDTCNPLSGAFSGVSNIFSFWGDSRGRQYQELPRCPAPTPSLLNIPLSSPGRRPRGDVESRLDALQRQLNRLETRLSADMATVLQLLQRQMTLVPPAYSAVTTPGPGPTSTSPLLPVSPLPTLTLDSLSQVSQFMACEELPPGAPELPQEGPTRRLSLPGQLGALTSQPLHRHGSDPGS

SMILES | hERG current change (%, negative = inhibition) at 1uM [%]
Cc1ccc(C(=O)NCc2ccc3c(c2)OCO3)cc1Cl | 15.9
O=C(N/C(=C\c1cccs1)C(=O)N1CCCCCC1)c1ccccc1 | 1.61
Cc1ccc(-c2nnn(CCC(=O)NC(C)(C)C)n2)cc1 | 5.38
C=CCc1cc(C)ccc1OCC(O)CN1CCN(c2ccccc2)CC1 (centres unmarked) | 1.51
COc1ccc(C)cc1NC(=O)COC(=O)c1c(C)nn(-c2ccccc2)c1C | 9.3
O=[N+]([O-])c1ccc2c(c1)nc1n2CCN(c2ccccc2)C1 | -0.0448
O=C(NNC(=O)c1ncc(Cl)c(Cl)c1Cl)c1ccc(F)cc1 | 13.2
Fc1cc2[nH]c(=S)[nH]c2c(Br)c1N1CCSCC1 | 16
COc1ccc(C2CC(c3cccs3)=NN2C(=O)CSC2=NCCS2)cc1 (centres unmarked) | 6.8
COCCCNC(=O)/C(C#N)=C/c1cc(C)[nH]c1C | 13.7
CCN1C(=O)N(c2ccc(Cl)cc2)C(C)=CC1(C)C | 9.95
CCCC(=O)N1CCN(c2ccc(NC(=O)c3ccc(N4CCCC4)c([N+](=O)[O-])c3)cc2Cl)CC1 | -8.46
O=C(CSc1ncc(-c2ccc(F)cc2)n1Cc1ccco1)Nc1ccc2c(c1)OCO2 | 11.5
Cc1ccc(C)c2[nH]c(=O)c(CN(CCN3CCCC3)C(=O)Nc3ccc(F)cc3)cc12 | -76.6
CCOc1ccccc1OCCCC(=O)Nc1nc2ccccc2[nH]1 | 6.55
CCOC(=O)Cc1csc(NC(=O)CSc2nnnn2-c2ccc(C)c(C)c2)n1 | 10
Cc1cc(C)cc(OCC(=O)Nc2ccc(N3CCN(C(=O)c4ccco4)CC3)cc2)c1 | -3.17
COc1ccc(-n2ccnc(SCC(=O)NC3CCCCC3)c2=O)cc1 | 2.42
CCOC(=O)C1=C(N)OC2=C(C(=O)CC(C)(C)C2)C1C1CCCCC1 (centres unmarked) | 6.47
CCCCN(CC)CCCNC(=O)c1cc2c(-c3ccc(OC)c(OC)c3)nn(C)c2s1 | 3.69
O=C(Nc1ccccc1)N1CCC(c2ccccc2)C1 (centres unmarked) | 5.64
COc1ccc(NC(=S)NCCN2CCOCC2)cc1 | 2.19
CC(=O)N1CCC(N(CCN2CCOCC2)C(=O)Nc2ccc(Cl)c(Cl)c2)CC1 | 2.68

SMILES | hERG current change (%, negative = inhibition) at 1uM [%]
Cc1cc(N/N=C/c2ccc(O)cc2O)nc(-n2nc(C)cc2C)n1 | 7.03
Cc1cc(C)n(CC(=O)N/N=C/c2ccco2)n1 | -3.45
CC(=O)Nc1ccc(S(=O)(=O)NNC(=O)c2cccc(Cl)c2)cc1 | 8.19
Cn1cnc(S(=O)(=O)N2CCN(c3ccccc3)CC2)c1 | 12
C=CCOc1nc2c(c(=O)n(Cc3ccc(Cl)c(Cl)c3)c(=O)n2C)n1C | 13.1
CCN(CC(F)(F)C(F)F)S(=O)(=O)c1ccc(NC(=O)OC)cc1 | 4.29
COc1ccc(/C=C2\SC(=O)N(CC(=O)NC3C=CS(=O)(=O)C3)C2=O)cc1 (centres unmarked) | 9.31
O=C(O)c1ccccc1NC(=O)C1C2CCC(O2)C1C(=O)O (centres unmarked) | 9.73
O=C1c2ccccc2C(=O)N1CSc1nnc(Nc2ccccc2F)s1 | 5.23
CCc1c(C)[nH]n(-c2nc(-c3cccc([N+](=O)[O-])c3)cs2)c1=O | 12.2
CCOc1ccccc1N1CCN(C(=O)C2=CC=CN3CCS(=O)(=O)N=C23)CC1 | 9.94
NC(=O)CSc1ncnc2c1oc1ccccc12 | 12.8
O=C(NCCCn1ccnc1)c1cccc(Cl)c1 | 8.85
COc1ccc(NC(=O)c2c(C(F)(F)F)nn(C)c2SCc2ccccc2)cc1 | 14.9
Cc1nc2cc(C(=O)N3c4ccccc4CC3C)ccc2s1 (centres unmarked) | 7.63
Cc1cccc2cc(CN(C(=S)NCC(C)C)C3CCCC3)c(=O)[nH]c12 | 14
COc1ccc(-n2c(C)nn(C)c2=O)cc1 | 9.88
CCc1nc2ccc(C(=O)N(C)CC(=O)Nc3ccc(Cl)c(C(F)(F)F)c3)cc2nc1CC | 6.47
COC(=O)C(C)(C)ONC(=O)Nc1ccccc1 | 4.94
Fc1ccc(N2CN(Cc3cccnc3)CNC2=S)cc1 | 14.3
CC(=O)NC1(c2cccc(F)c2)CCN(CC(=O)NC(C)C)CC1 | 5.25
NC(=O)C1CC(=O)N(CCc2ccc(F)cc2)C1 (centres unmarked) | 8.95
CCOc1cc(NC(=S)NCc2ccco2)c(OCC)cc1NC(=O)c1ccco1 | 9.12

SMILES | hERG current change (%, negative = inhibition) at 1uM [%]
COc1ccc(C)c2sc(=NC(=O)c3ccccc3)n(C)c12 | 18.2
CCOC(=O)NC(=O)CSc1nc2ccc([N+](=O)[O-])cc2[nH]1 | 11.5
CSc1ccccc1NC(=O)CSc1n[nH]c(N)n1 | 8.8
COc1cc(/C=C/c2nc3ccccc3c(=O)[nH]2)cc(OC)c1OC | 11.6
Cc1ccccc1OCC(=O)Nc1cnn(CCCC(=O)O)c1 | 13.1
O=C(NNC(=O)c1cc(Br)ccc1Cl)c1csc(N2CCOCC2)n1 | 4.13
Cc1cc(NC(=O)CN2C(=O)S/C(=C\c3ccccc3)C2=O)no1 | -4.21
CC(NCC(=O)Nc1cc(S(=O)(=O)N2CCOCC2)ccc1Cl)c1ccc(Cl)cc1Cl (centres unmarked) | 8.12
CCc1[nH]nc(C(=O)N/N=C/c2ccncc2)c1C | -18.2
C/C(=N\NC(=O)c1nn(C)c(C)c1Br)c1ccc(NC(=O)C2CCCC2)cc1 | 14.7
O=C(c1ccc(Cl)nc1)N1CCN(S(=O)(=O)c2ccc(Cl)cc2)CC1 | -5.09
COc1ccc2c(Cl)c(C(=O)NCCCn3ccnc3)sc2c1 | 6.5
CCCN1CCN(C(=O)CCn2c(=O)c3cccn3c3cccnc32)CC1 | 2.22
COc1ccccc1NC(=O)CN1C(=O)COc2ccc(C)cc21 | 8.28
COc1cccc(CNC(=O)CCNS(=O)(=O)c2ccc3[nH]c(=O)oc3c2)c1 | 7.21
COc1ccc(OC)c(N(C(=O)c2ccco2)C(C(=O)NC2CCCC2)c2ccc(N3CCOCC3)cc2)c1 (centres unmarked) | 8.75
CC(=O)Nc1ccc(C(=O)Nc2cccc(S(=O)(=O)NC3=NCCC3)c2)cc1 | 3.54
CCOc1ccc(C2/C(=C(\O)c3ccc4c(c3)OCCO4)C(=O)C(=O)N2Cc2cccnc2)cc1OCC (centres unmarked) | 15.8
C/C(=N/OCO/N=C(\C)c1ccccc1)c1ccccc1 | 19.7
CSCC[C@H](NC(=O)OC(C)(C)C)C(=O)N1CCC(C(=O)NCC(=O)Nc2ccc(C)cc2)CC1 | 11.9
O=C(c1cc(-c2ccc(O)cc2)on1)N1CCCc2ccccc21 | 8.9
Cn1c(SCC(=O)N/N=C/C=C/c2ccco2)nc2ccccc21 | -1.47
O=C1CC(N2CCC(c3nc4ccccc4o3)CC2)C(=O)N1c1cc(Cl)cc(Cl)c1 (centres unmarked) | -3.71

SMILES | hERG current change (%, negative = inhibition) at 1uM [%]
CC1(C)Cc2ccccc2C(COc2ccccc2)=N1.Cl | 18.4
Fc1ccc(NC(=S)N2CCN(C/C=C/c3ccccc3)CC2)c(F)c1 | 13
O=C(CSc1nnc(NC(=O)c2ccccc2[N+](=O)[O-])s1)NCc1ccco1 | 9.5
COc1ccc(C2=NN(C(=O)c3cccs3)C(O)(C(F)(F)F)C2)cc1 (centres unmarked) | 4.33
Cc1cc(Cl)ccc1OC(C)C(=O)OCC(=O)Nc1ccc2[nH]c(=O)[nH]c2c1 (centres unmarked) | -3.17
CCn1nc(C(=O)OCc2c(C)noc2C)c2ccccc2c1=O | 0.701
CCCC(C)C(=O)Nc1cc([N+](=O)[O-])ccc1Cl (centres unmarked) | 16.8
CN(CC(=O)Nc1ccccc1Br)C(=O)c1ccc(COc2ccccc2)cc1 | 9.47
Cn1c(SCC(=O)N/N=C/C=C\c2ccco2)nc2ccccc21 | -13.7
COc1cccc(C2=NOC(C(=O)NCc3ccccc3)C2)c1 (centres unmarked) | 2.78
Nc1ccc(S(=O)(=O)N2CCCc3ccccc32)cc1 | -1.98
C=C1CN(CC(=O)OC)S(=O)(=O)c2ccccc21 | 8.37
Cc1cc(=O)oc2cc(OCC(=O)NCCCn3ccnc3)ccc12 | 10.4
c1ccc(N2CCN(c3cnccn3)CC2)nc1 | 19.8
COC(=O)C1=C(C(=O)OC)N2C=CC=CC2(C)C(C(=O)OC)=C1C(=O)OC (centres unmarked) | 1.82
Cc1ccc(NC(=O)c2ccccc2OCC(=O)Nc2ccccc2F)cc1S(=O)(=O)N(C)C | 9.6
CC(C)C[C@@H](CN=[N+]=[N-])N1CCN(C)CCC1=O | 13.1
O=C(CNc1ccccc1)NNC1=NCCC1 | -0.636
COc1ccc(N(CC(=O)Nc2ccc3c(c2)OCCO3)S(=O)(=O)c2c(C)nn(C)c2C)cc1 | 3.03
CCOc1ccc2oc(=O)cc(CN3CCN(Cc4ccccc4)CC3)c2c1 | -15.5
